This sample is rich in variants without activity.

B1: TPR 5TU (parent)
chain: GGAUCUUCUCGAUCUAACAAAAAAGACAAAUCUGCCACAAAGCUUGAGAGCAUCUUCGGAUGCAGAGGCGGCAGCCUUCGGUGGCGCGAUAGCGCCAACGUUCUCAACUAUGACACGCAAAACGCGUGCUCCGUUGAAUGGAGUUUAUCAUG

This series covers variants of B1. The experiment in a line: polymerase ribozyme fitness, log enrichment relative to wild type (log ratio); higher = more active; in vitro selection for triplet polymerase activity. A digest of the protocol:
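A single round of triplicate in vitro selection, including frozen incubation at −7 °C, was applied to PCR-built, transcribed mutant libraries of each subunit of a heterodimeric triplet polymerase ribozyme. Illumina sequencing of input and output libraries retained genotypes with ≥10 input reads and ≥1 read per output. Fitness is the base-2 logarithm of genotype enrichment divided by wild-type enrichment, from inverse-variance-weighted replicate averages.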
C8U A52G G58C C76G C93A C108G G136U: the “polymerase ribozyme fitness (log ratio)” value is at most -4.2.
Then C8G C43A C69G G92C, with at most -4.2; and U9A A39U, with at most -4.2.
Then U7G A19U A23U A52C C69U C99U C118U G128U C132A, with at most -4.2; and C8U C35U G50C U55A G58C G59C A60C A106U G141A, with at most -4.2.
Then C8G A30G C51U G84A G88A C103G A106U C116A U134C, with at most -4.2.
As to U9C G25A U31G A40U A52C C54U C57U G74A C96G C116U G128U, the “polymerase ribozyme fitness (log ratio)” value is at most -4.2.
The result for U9C G11U C18G C35U C75G C87G A89G A137U G143A reads at most -4.2.
Then U9A G25C G84U, with at most -4.2; and U7G A30G C32A A39U A60G C96U G126U G140U, with -3.86.
The result for U9C U15G C54A G67C G84A G117A reads at most -4.2; that for C8G C43U G88C C93A U146G, at most -4.2.
For the variant U7G C32U U55A G83A C116U A119G C123G U135G, the “polymerase ribozyme fitness (log ratio)” value was at most -4.2.
Then C8U U9G C18G U33G U55A C95U C105U G112U C132U A147U, with at most -4.2; and C8A U55A U56A C87A A97C G100U, with at most -4.2.
The result for U7C A19C A21G G46U A47G U77G G92A A121U G141U U146C reads at most -4.2.
Consider C8U A28C C57U C76G G83U G88U C96A A122C A137G C149U, for which the “polymerase ribozyme fitness (log ratio)” value was at most -4.2.
Then U7C C63A C69U C95G A107C U134G, with at most -4.2; and U7G G50C U56G G94C, with at most -4.2.
Then C8U U31C U90C C93U A150C, with at most -4.2; and C8G C125A, with -3.82; and C8A U15A G34A A49G A60G C87A A98G U145G, with at most -4.2.
The result for U7C U55A C63U G88U A107U U145A reads at most -4.2; that for C8G C75G G83A A91G G92A C93G C96A U111G C132U G141A A147U, at most -4.2.
In the case of C8A A16G A41C G92U A138C U145A G152A, the “polymerase ribozyme fitness (log ratio)” value is at most -4.2.
Then U7C A16U A64C G88A U101G U130C, with at most -4.2.
Then C8U U9G A40U A41C G83C U135G U146C A150U, with at most -4.2; and U9C A26G U55G C63A G94U U127A U130A C149U, with at most -4.2; and U7C A16U A49G G92C, with at most -4.2.
The result for C8U A16G A26U G94U C96U C123U U134C reads at most -4.2; that for C8A C54U G92U C95U C105U C118G U139G, at most -4.2.
As for C8A A60U C93A C105A G112U, the “polymerase ribozyme fitness (log ratio)” value is at most -4.2.
The result for U9A A41U A52C G62U C87G A89G C95U C116A A142C U146A A150C reads at most -4.2; that for C8U C10G A64C G81A G84A, at most -4.2.
Then U7C G42U C43A G112U, with at most -4.2.
Turning to C8U C51A G59U G84U, the “polymerase ribozyme fitness (log ratio)” value was at most -4.2.
Take C8G C14A C38A A49C G86A A91C: the “polymerase ribozyme fitness (log ratio)” value is at most -4.2.
Then C8G A19G G48C U56A C79A C105A A106G G140C, with at most -4.2.
Then C8U U55A, with -2.51; and C8A A26U U53A G59C G86A C118G, with at most -4.2.
Then U7G C95U, with -2.93; and C8U A39G U53C A66G G80C, with at most -4.2; and U9A G86C C105G, with at most -4.2.
On to C8A G68A A73G C85U G126A, for which the “polymerase ribozyme fitness (log ratio)” value is at most -4.2.
Consider C8U C96G, for which the “polymerase ribozyme fitness (log ratio)” value was -2.63.
The result for C8U G46C U55A A60U C95U A98U G143A C149G reads at most -4.2; that for U9A G88A U109G C125U, at most -4.2.
Then U7C C27A C69G G86A G100C, with at most -4.2; and U7C C14G A29U G70A C93U A107C C132G G140C G143U, with at most -4.2.
Then C8U G11U U15C A49C A60U C63U C69U A91G C132G, with at most -4.2; and C8U U15A G58U C69A C85A G124C, with -3.61.
As for U7C U31A G88U C95U, the “polymerase ribozyme fitness (log ratio)” value is at most -4.2.
The result for C8U C38U A49G C79G C93A C103G G136U reads at most -4.2; that for U9A U31C G67C, at most -4.2.
The result for C8G A66C C75U C103G U127G A150G reads at most -4.2.
With U7C A64C U82A C103G, the “polymerase ribozyme fitness (log ratio)” value is at most -4.2.
The result for C8U G11C C35U C54A C96A C108A C125G reads at most -4.2.
In the case of C8U A91G C96U A142G U145A, the “polymerase ribozyme fitness (log ratio)” value is at most -4.2.
Then U7C A24U C96U A107G C125G U144C U151C, with -4.07; and C8G C27A C57G A60G G71U A97U A98G C105A A138G, with at most -4.2.
The result for U9C G71A C95U U151C reads at most -4.2.
Then U7G G94A G143C, with at most -4.2; and C8A C32G A41G G50A C99U A119U A142C C149G, with at most -4.2.
For the variant C8G U55G C72U G84U G136A, the “polymerase ribozyme fitness (log ratio)” value was at most -4.2.
The result for C8U A12G A52G A98U reads -2.99.
Then C8A G58A G62C C85U U109C G124A, with at most -4.2.
As for U9C C99G C114G U148A, the “polymerase ribozyme fitness (log ratio)” value is at most -4.2.
The result for C8A A89U A91G C105G A138G reads at most -4.2.
Then U7A U53A C69G C87G, with at most -4.2; and C8A A17C U31G U55A C87U, with at most -4.2; and U7G A19U G25U C35U C57U C79G U82G C93U C116U C125U A142G, with at most -4.2.
Then C8A U15G C35G U56C G70A G100U, with at most -4.2; and U7G A16C G25C C27G C87G A106G U144A, with at most -4.2.
As for C8A C54A, the “polymerase ribozyme fitness (log ratio)” value is at most -4.2.
The result for C8A U9A reads at most -4.2.
Then C8A C54U C87G A91G G143C, with at most -4.2.
Then U9A C36U C63U C93G, with at most -4.2.
As for U7G U33C A89U C93U, the “polymerase ribozyme fitness (log ratio)” value was at most -4.2.
As to C8G C18U U55G G133U A142C, the “polymerase ribozyme fitness (log ratio)” value was at most -4.2.
The result for U9A A52G G84U U90A G92A U139G reads at most -4.2.
Then C8G A21C G46A A66U G80U C131U, with at most -4.2.
Consider U9A A91U C95A A121G, for which the “polymerase ribozyme fitness (log ratio)” value was at most -4.2.
The result for U9A A19U A22U C54A G65U G94A G126A A147G reads at most -4.2.

The record behind these values is the RNAGym collection of RNA variant scans (doi:10.1073/pnas.2313332121).
